From PubChem BioAssay (NCATS)
Inconclusive results, whose numbers are uncertain, are shown with a selection of clear calls. For some assays here: Potencies beside an inconclusive call are fits to weak or partial responses and may not hold up. Calls of active or inactive are those of the source. Unless noted, calls follow the shape of the dose curve; as a rule, active = well fitted inhibition curve with a large enough effect; inconclusive = small, poorly fitted or top-dose-only effect; inactive = no such curve, though single readings can be large or run the other way.

Tests used:
[1] = molecular target: Aldehyde dehydrogenase, mitochondrial (Homo sapiens) (UniProt P05091); experiment: qHTS for Inhibitors of the Aldehyde Dehydrogenase Family (ALDH2) Confirmatory screens (AID 2061303; active = well fitted inhibition curve with a large enough effect; inconclusive = small, poorly fitted or top-dose-only effect; inactive = no such curve, though single readings can be large or run the other way; title and protocol of this record describe different tests; also: nearly all actives have a fitted effect of over 45% in size; as to activity change, negative = inhibition: % is scaled to controls: 0 for no effect and ±100 for the full control effect); details: ALDH inhibition qHTS; activity change, negative = inhibition: at 45.4 µM (top of the series)
[2] = qHTS for Inhibitors of the Aldehyde Dehydrogenase Family (ALDH1A2, ALDH1A3, ALDH2, ALDH3A1) (AID 2061307); details: ALDH inhibition qHTS; activity change, negative = inhibition: at 50.3 µM (top of the series) unless noted; also: nearly all actives have a fitted effect of over 50% in size; as to Potency: test system not described further here; as to activity change, negative = inhibition: % is scaled to controls: 0 for no effect and ±100 for the full control effect
[3] = molecular target: Retinaldehyde dehydrogenase 3 (Homo sapiens) (UniProt P47895); experiment: qHTS for Inhibitors of the Aldehyde Dehydrogenase Family (ALDH1A3) Confirmatory screens (AID 2061311); details: activity change, negative = inhibition: at 46 µM (top of the series); also: nearly all actives have a fitted effect of over 60% in size
[4] = molecular target: Aldehyde dehydrogenase 1A1 (Homo sapiens) (UniProt P00352); experiment: qHTS for Inhibitors of the Aldehyde Dehydrogenase Family (ALDH1A1) Confirmatory screens (AID 2061316); details: activity change, negative = inhibition: at 47.3 µM (top of the series); also: nearly all actives have a fitted effect of over 65% in size; as to activity change, negative = inhibition: % is scaled to controls: 0 for no effect and ±100 for the full control effect
[5] = molecular target: Retinal dehydrogenase 2 (Homo sapiens) (UniProt O94788); experiment: qHTS for Inhibitors of the Aldehyde Dehydrogenase Family (ALDH1A2) Confirmation screens (AID 2061314); details: activity, negative = inhibition: at 45.9 µM (top of the series) unless noted; also: nearly all actives have a fitted effect of over 65% in size; as to activity, negative = inhibition: % is scaled to controls: 0 for no effect and ±100 for the full control effect
[6] = molecular target: Retinaldehyde dehydrogenase 3 (Homo sapiens) (UniProt P47895); experiment: qHTS for Inhibitors of the Aldehyde Dehydrogenase Family (ALDH1A3) Validation screen (AID 2061312); details: ALDH1A3 enzyme inhibition qHTS validation, fluorescence; activity change, negative = inhibition: at 84.7 µM (top of the series); also: nearly all actives have a fitted effect of over 45% in size
[7] = molecular target: Retinaldehyde dehydrogenase 3 (Homo sapiens) (UniProt P47895); experiment: qHTS for Inhibitors of the Aldehyde Dehydrogenase Family (ALDH1A3) Primary screen (AID 2061315); details: ALDH inhibition qHTS; activity change, negative = inhibition: at 56 µM (top of the series) unless noted;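 as to activity change, negative = inhibition: plate controls were DMSO vehicle for no effect and reference inhibitor for full effect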
Potency is read from the fitted curve at half-maximal effect; tags tell the direction and shape of the fitted curve.

| Compound | Potency [1] | Potency [2] | Potency [3] | Potency [4] | Potency [5] | Potency [6] | Potency [7] | activity, negative = inhibition [5] |
| --- | --- | --- | --- | --- | --- | --- | --- | --- |
| COc1ccc(C=O)cc1COc1ccc(NC(C)=O)cc1 | active: 3.16 µM | active: 0.318 µM | active: 15.8 µM | inconclusive: 8.96 µM [inhibitor, partial curve] | – | – | – | – |
| O=C1N/C(=C\c2ccco2)C(=O)N1Cc1ccccc1 | inconclusive: 0.112 µM [inhibitor, full curve, poor fit] | active: 0.798 µM | – | active: 3.57 µM | active: 12.7 µM | – | – | – |
| NC(=O)C1CCN(c2ncc(-c3cccc(N4CCCC4)c3)s2)CC1 | active: 12.7 µM | inconclusive: 0.0891 µM [inhibitor, full curve, poor fit] | – | – | active: 11.3 µM | – | – | – |
| C=CC(=O)N1CCN(C(=O)CNc2cc(I)c(Cl)cc2O)CC1 | inconclusive: 12.7 µM [inhibitor, partial curve] | active: 2.25 µM | – | – | – | active: 7.08 µM | active: 2.82 µM | – |
| CC(=O)N1CCN(c2ccc(NCc3ccccc3)cc2)CC1 | inconclusive: 7.12 µM [inhibitor, partial curve, poor fit] | inconclusive: 11.3 µM [inhibitor, partial curve] | – | – | active: 11.3 µM | – | inconclusive: 15.8 µM [inhibitor, partial curve] | – |
| O=C(CSc1nc2ncccc2o1)Nc1ccc(Cl)cc1F | inconclusive: 22.9 µM [inhibitor, partial curve] | inactive | – | – | inconclusive: 20.5 µM [inhibitor, partial curve] | – | – | – |
| Cc1cccc(C[C@H](C(=O)O)N2C(=O)c3ccc(C(=O)O)cc3C2=O)c1 | inactive | inactive | – | inactive | inconclusive: 22.5 µM [inhibitor, partial curve, poor fit] | – | inactive | – |
| c1c[nH]c(C2CCN(c3ncc(-c4ccc5c(c4)OCCCO5)s3)CC2)n1 | inconclusive: 2.82 µM [inhibitor, full curve] | inconclusive: 6.31 µM [inhibitor, full curve, poor fit] | – | – | active: 4 µM | – | – | – |
| O=C1c2ccccc2C(=O)c2cc(S(=O)(=O)Nc3cccc4cccnc34)ccc21 | inconclusive: 11.3 µM [inhibitor, partial curve, poor fit] | inconclusive: 0.225 µM [inhibitor, full curve, poor fit] | – | inconclusive: 15.9 µM [inhibitor, partial curve, poor fit] | inconclusive: 0.179 µM [inhibitor, full curve, poor fit] | – | inconclusive: 5.62 µM [inhibitor, partial curve] | – |
| CCn1cc2nc(SCc3ccc(C)cc3)n(CCc3ccccc3)c(=O)c2n1 | active: 14.1 µM | active: 10 µM | – | inconclusive: 31.6 µM [inhibitor, single point] | active: 7.94 µM | – | – | – |
| COc1cc(O)c(C(=O)O)c(CCc2ccccc2)c1 | inconclusive: 12.7 µM [inhibitor, partial curve] | inconclusive: 7.12 µM [inhibitor, partial curve] | – | active: 10.1 µM | – | – | inconclusive: 25.1 µM [inhibitor, partial curve] | inconclusive: -43.1% [inhibitor] |
| Cc1ccc(S(=O)(=O)NC(N)=NCCC[C@@H](NC(=O)CNC(=O)c2ccccc2)C(=O)Nc2cc(C(F)(F)F)ccc2Cl)cc1 | inactive | inactive | – | inactive | inactive | – | inactive | – |
| CN(C)c1cccc(-c2cnc(N3CCC(C(N)=O)CC3)s2)c1 | inconclusive: 11.3 µM [inhibitor, partial curve] | active: 8.96 µM | – | – | inactive | – | inconclusive: 31.6 µM [inhibitor, partial curve, poor fit] | – |
| C=CC(C)(O)CC/C=C(\C)C1CC=C(C)C(=O)O1 (stereo not given) | inconclusive: 6.34 µM [inhibitor, partial curve, poor fit] | inactive | – | inconclusive: 12.7 µM [inhibitor, partial curve] | inconclusive: 11.3 µM [inhibitor, partial curve] | – | active: 14.1 µM | – |
| C#Cc1nc(Nc2cccc(Cl)c2)nc(NC2CCCC2)n1 | active: 31.6 µM | inconclusive: 15.8 µM [inhibitor, partial curve, poor fit] | – | inconclusive: 22.5 µM [inhibitor, partial curve] | active: 8.91 µM | – | – | – |
| CC(=O)NC(C)c1cnc(-c2cnc(Oc3ccc(OC(C)C)cc3)s2)s1 (stereo not given) | inactive | inconclusive: 20.1 µM [inhibitor, partial curve] | – | inconclusive: 35.7 µM [inhibitor, partial curve, poor fit] | inactive | – | – | – |
| O=c1[nH]c2ccc(NCc3ccc(-c4ccc(F)cc4)o3)cc2[nH]1 | active: 0.914 µM | inconclusive: 1.12 µM [inhibitor, full curve, poor fit] | – | inconclusive: 14.1 µM [inhibitor, partial curve] | inactive | – | – | – |
| N=c1c2c(ncn1-c1ccccc1)Oc1ccc3ccccc3c1C2c1ccc2c(c1)CCO2 (stereo not given) | active: 14.1 µM | active: 7.08 µM | – | – | inconclusive: 1.58 µM [inhibitor, full curve, poor fit] | – | – | – |
| CN(C)c1cccc(-c2csc(N3CCC(C(N)=O)CC3)n2)c1 | active: 12.7 µM | inconclusive: 0.759 µM [inhibitor, full curve, poor fit] | – | – | inconclusive: 14.2 µM [inhibitor, partial curve] | – | – | – |
| COc1ccc(C2Nc3ccccc3C(=O)N2CCO)cc1COc1ccc(NC(C)=O)cc1 (stereo not given) | active: 2 µM | active: 3.18 µM | – | – | active: 14.2 µM | – | – | – |
| CCc1nc2c(sc3nc4c(cc32)COC(C)(C)C4)c(=O)n1Cc1ccco1 | active: 6.34 µM | inconclusive: 11.3 µM [inhibitor, partial curve] | – | active: 0.634 µM | active: 7.12 µM | – | inconclusive: 10 µM [inhibitor, partial curve] | – |
| CNCCC(c1cccs1)c1ccc(O)c2ccccc12 (stereo not given) | inconclusive: 15.8 µM [inhibitor, partial curve] | inconclusive: 14.1 µM [inhibitor, partial curve, poor fit] | – | inconclusive: 12.7 µM [inhibitor, partial curve] | inconclusive: 10.1 µM [inhibitor, partial curve] | – | active: 15.8 µM | – |
| NC(=O)C1CCN(c2nc(-c3ccccc3-c3ccccc3)cs2)CC1 | inconclusive: 12.7 µM [inhibitor, partial curve] | inconclusive: 15.9 µM [inhibitor, partial curve, poor fit] | – | – | inconclusive: 5.04 µM [inhibitor, partial curve] | – | inconclusive: 0.562 µM [inhibitor, full curve, poor fit] | – |
| CC(C)c1cc2c(c(O)c1O)[C@@]13CCCC(C)(C)C1[C@@H](O)[C@@H]2OC3=O (stereo not given in full) | inconclusive: 7.83 µM [inhibitor, partial curve] | inconclusive: 5.54 µM [inhibitor, partial curve] | – | inconclusive: 6.97 µM [inhibitor, partial curve] | inconclusive: 17.5 µM [inhibitor, partial curve] | – | active: 4.47 µM | – |
| Cc1ccc2nc3sc(C(=O)NCCCN(C)C)cc3cc2c1 | inconclusive: 15.2 µM [inhibitor, partial curve, poor fit] | active: 12.1 µM | – | inconclusive: 12.1 µM [inhibitor, partial curve] | inconclusive: 13.6 µM [inhibitor, partial curve] | – | inconclusive: 14.1 µM [inhibitor, partial curve] | – |
| CC(=O)Nc1sc2c(c1-c1nc3ccccc3o1)CCN(C(C)C)C2 | inconclusive: 0.891 µM [inhibitor, full curve] | active: 7.08 µM | – | inconclusive: 14.2 µM [inhibitor, partial curve] | inconclusive: 7.12 µM [inhibitor, partial curve] | – | inconclusive: 17.8 µM [inhibitor, single point] | – |
| Cc1ccc2nc3sc(C(=O)N4CCN(C)CC4)cc3cc2c1 | inactive | inconclusive: 12.7 µM [inhibitor, partial curve] | – | inconclusive: 14.2 µM [inhibitor, partial curve] | active: 10.1 µM | – | inconclusive: 2.24 µM [inhibitor, full curve, poor fit] | – |
| COc1ccc2c(c1O)OC[C@H]1c3ccc(O)cc3O[C@@H]21 | inactive | inconclusive: 5.65 µM [inhibitor, partial curve] | – | inconclusive: 11.3 µM [inhibitor, partial curve] | inconclusive: 28.3 µM [inhibitor, partial curve, poor fit] | – | inconclusive: 14.1 µM [inhibitor, partial curve] | – |
| CN(Cc1ccco1)c1ncnc2ccc(-c3cccnc3)cc12 | inactive | inactive | – | – | inconclusive: 22.5 µM [inhibitor, partial curve] | – | – | – |
| Cc1ccc(NC(=O)CN2C(=O)N/C(=C\c3cccn3-c3ccc(C(=O)O)cc3)C2=O)cc1 | inconclusive: 12.7 µM [inhibitor, partial curve, poor fit] | inactive | – | inconclusive: 20.1 µM [inhibitor, partial curve, poor fit] | inconclusive: 25.2 µM [inhibitor, partial curve] | – | – | – |
